PubChem BioAssay AID1468 (National Center for Advancing Translational Sciences (NCATS), 2008)
About 1,100 (0.39%) of roughly 280,000 compounds were called active. This list was built around the results that the source calls inconclusive (neither active nor inactive); the mix of calls is not that of the screen. The call rests on the fitted dose curve; in most records, active means well fitted inhibition curve with a large enough effect; inconclusive means small, poorly fitted or top-dose-only effect, or effect the other way; inactive means flat fitted curve, though single readings scatter. A potency beside an inconclusive call is a rough fit, not a confirmed value.

target: Microtubule-associated protein tau (Homo sapiens) (UniProt P10636); assay: qHTS for Inhibitors of Tau Fibril Formation, Fluorescence Polarization; conditions: K18 P301L tau heparin fibrillization, Alexa594 FP, 6 h; series mostly up to 57.7 µM; activity, negative = inhibition: at the top concentration; further: nearly all actives have a fitted effect of over 55% in size
UniProt P10636, sequence (P10636 whole entry, looked up, the tested form may be a part): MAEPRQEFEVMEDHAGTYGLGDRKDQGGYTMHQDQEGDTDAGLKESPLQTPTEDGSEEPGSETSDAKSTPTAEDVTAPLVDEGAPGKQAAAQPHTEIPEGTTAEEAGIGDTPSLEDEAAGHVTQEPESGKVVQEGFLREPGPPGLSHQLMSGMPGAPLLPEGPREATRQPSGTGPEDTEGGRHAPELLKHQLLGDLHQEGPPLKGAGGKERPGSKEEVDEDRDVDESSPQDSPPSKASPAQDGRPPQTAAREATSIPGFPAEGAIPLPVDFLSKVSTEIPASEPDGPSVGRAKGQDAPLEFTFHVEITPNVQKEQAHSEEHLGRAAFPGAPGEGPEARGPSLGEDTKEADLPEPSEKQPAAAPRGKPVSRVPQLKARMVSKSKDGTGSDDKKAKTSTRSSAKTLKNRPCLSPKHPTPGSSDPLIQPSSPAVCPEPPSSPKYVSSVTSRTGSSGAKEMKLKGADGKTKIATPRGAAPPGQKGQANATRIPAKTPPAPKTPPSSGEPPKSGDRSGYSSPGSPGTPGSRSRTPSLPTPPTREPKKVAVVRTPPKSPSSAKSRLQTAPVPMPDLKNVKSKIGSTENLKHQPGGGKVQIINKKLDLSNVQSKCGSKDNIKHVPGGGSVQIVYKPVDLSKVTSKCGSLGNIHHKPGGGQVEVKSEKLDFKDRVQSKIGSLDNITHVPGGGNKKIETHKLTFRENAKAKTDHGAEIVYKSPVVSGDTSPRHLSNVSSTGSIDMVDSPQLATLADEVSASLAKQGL
How it was run: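 Human tau K18 […] P301L fragment, 15 uM unlabeled plus 0.24 uM Alexa 594-labeled tau (final), with compound and 20 uM heparin in 100 mM sodium acetate pH 7; 6 hr at 37 C, then Alexa 594 FP read.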
On the % scale 0 is the no-effect control and ±100 the full control effect; potency means the concentration at half of the fitted maximal effect; tags describe the fitted curve by direction and shape.

activity, negative = inhibition, inactive:
Cc1ccc(C)c(-n2cc[nH]c2=S)c1 1.35%
COc1ccc([C@@H]2[C@H]3C(=O)N(c4cccc(C(F)(F)F)c4)C(=O)[C@H]3ON2C)cc1 0.497%
COc1ccccc1NC(=O)N1CCN(c2cc(-c3ccccc3)nc3ncnn23)CC1 -5.2%
O=C(Cn1nnc(-c2ccc(Cl)cc2)n1)NCc1ccc(F)cc1 4.82%
C=CCn1c(SCC(=O)N2CCCC2)nc2cc(C(=O)NCC3CCCO3)ccc2c1=O (stereo not given) -4.56%
CCC(=O)N1CCCc2cc(S(=O)(=O)Nc3ccc(C)c(C)c3)ccc21 -4.58%
CCC/C=C(\CCC)C(NS(=O)(=O)c1ccc(Cl)cc1)c1ccc(C(=O)OC)cc1 (stereo not given) -0.09%
Cc1cccc(N(CC(=O)NCc2ccc3c(c2)OCO3)C(=O)CCC(=O)Nc2ccccn2)c1C 5.56%

Potency, inconclusive:
O=C(NCCCNc1ccc(C(F)(F)F)cc1[N+](=O)[O-])c1ccc(F)cc1 3.55 µM [inhibitor, partial curve, poor fit]
O=C(CN1CCN(c2ccccc2O)CC1)NNC(=O)c1ccc(Cl)cc1 7.08 µM [inhibitor, single point]
CN(C)S(=O)(=O)c1cccc(NC(=O)CSc2nc3ccccc3n2-c2ccccc2)c1 8.91 µM [inhibitor, partial curve, poor fit]
NS(=O)(=O)c1ccc(NC(=O)c2ccc(CNS(=O)(=O)c3cc(C(F)(F)F)ccc3Cl)cc2)cc1 31.6 µM [inhibitor, single point]
CCC(Oc1ccc(F)cc1)C(=O)Nc1nc(-c2ccc(F)cc2)ns1 (stereo not given) 39.8 µM [inhibitor, single point]
Cc1ccc(S(=O)(=O)Nc2nc3ccccc3nc2NCc2ccco2)cc1 28.2 µM [inhibitor, single point]
CCOC(=O)c1ccc(NC(=O)CC2C(=O)N(c3cccc(OC)c3)C(=O)N2Cc2ccc(OC)cc2)cc1 (stereo not given) 0.178 µM [inhibitor, full curve, poor fit]
COc1ccc(NC(=O)c2nc[nH]c2C(=O)N[C@@H](C)C(=O)OC(C)(C)C)cc1 35.5 µM [inhibitor, single point]
Cc1cc(C)n2nc(SCC(=O)Nc3cccc(C(F)(F)F)c3)nc2n1 44.7 µM [inhibitor, single point]
COc1ccc(Cl)cc1NC(=O)c1c(NCc2sccc2C)sc2c1CCCC2 7.08 µM [inhibitor, full curve]
Clc1ccccc1CNc1nc2ccccc2c2nc(-c3cccnc3)nn12 2.82 µM [inhibitor, partial curve, poor fit]
O=S(=O)(c1ccc(Nc2ccc(-c3ccc4c(c3)OCCO4)nn2)cc1)N1CCCC1 28.2 µM [inhibitor, single point]
O=S(=O)(c1ccc(Br)cc1)c1nc(-c2cccs2)oc1SCc1ccccc1F 0.708 µM [inhibitor, full curve, poor fit]
O=C(COc1nc2ccccc2nc1N1CCOCC1)Nc1cccc(S(=O)(=O)N2CCCCC2)c1 25.1 µM [inhibitor, single point]
CC[n+]1ccc(C[n+]2ccccc2)c2ccccc21 39.8 µM [inhibitor, single point]
COc1cccc2cc(C(=O)NCCc3c(C)[nH]c4ccc(Br)cc34)c(=O)oc12 3.16 µM [activator, full curve, poor fit]
COc1ccc(NC(=S)N(CCc2c(C)[nH]c3ccc(C)cc23)Cc2ccco2)cc1 31.6 µM [activator, partial curve, poor fit]
N#CCCN(Cc1cccs1)C(=O)c1ccc(Cl)cc1 3.16 µM [inhibitor, single point]
COc1ccc(C2=NN(CN3C(=O)C(=O)c4ccccc43)C(c3ccc(OC)cc3)C2)cc1 (stereo not given) 8.91 µM [inhibitor, single point]
CC/C(=N/Nc1ccccc1C)c1cnnc(SC)n1 31.6 µM [inhibitor, partial curve, poor fit]
Cc1cc(Nc2ccc(F)c(F)c2)nc(-c2ccccc2O)n1 7.94 µM [inhibitor, partial curve, poor fit]
Cc1ccc(CCNC(=O)C2CCN(c3nnc(-n4cccc4CNc4ccc(C)cc4)s3)CC2)cc1 2.51 µM [activator, full curve]
Cc1cc(Oc2ccccc2)nc(-c2ccccc2O)n1 2 µM [inhibitor, partial curve, poor fit]
O=C(CN1C(=O)CC(c2ccccc2)Sc2ccccc21)Nc1cccc(Cl)c1 (stereo not given) 8.91 µM [inhibitor, partial curve, poor fit]
O=C(Nc1ccc2nc(SCC(=O)N3CCCc4ccccc43)sc2c1)c1ccc(F)cc1 14.1 µM [inhibitor, partial curve]
CCOc1ccc(CNc2ccc(N3CCCC3)cc2)cc1 14.1 µM [inhibitor, partial curve]
O=C(CSc1ncnc2c1oc1ccccc12)Nc1cccc(Cl)c1 25.1 µM [inhibitor, partial curve]
COc1cc(/C=N/Nc2nc(N3CCCC3)nc(N3CCCC3)n2)ccc1OCc1ccccc1F 0.282 µM [activator, partial curve, poor fit]
O=C(Nc1ccccc1N1CCCCC1)c1ncoc1-c1cccc(F)c1 20 µM [inhibitor, single point]
CC(C)(C)c1ccc(NC(=O)N2CCN(c3ccc([N+](=O)[O-])cn3)CC2)cc1 35.5 µM [inhibitor, partial curve, poor fit]

Potency, inactive:
CCCCCCCCCCCCCCCC(=O)N[C@H](CN1CCOCC1)[C@H](O)c1ccccc1

Potency, active:
N#CC1=C(SCC(=O)c2ccccc2)NC2=C(C(=O)CCC2)C1c1ccco1 (stereo not given) 31.6 µM
